# Measured values from PubChem BioAssay AID624296 (National Center for Advancing Translational Sciences (NCATS), 2012).
# The campaign covered roughly 350,000 compounds. About 9,900 (2.8%) were called active. The shares of active, inactive and inconclusive entries below differ from those in the screen. Calls follow the shape of the dose curve; as a rule, active = well fitted activation curve with a large enough effect; inconclusive = small, poorly fitted or top-dose-only effect; inactive = no such curve, though single readings can be large or run the other way. No potency is given beside an inconclusive call; the fits are too rough.
# Experiment: A quantitative high throughput screen for small molecules that induce DNA re-replication in MCF 10a normal breast cells. Also: nearly all actives have a fitted effect of over 50% in size. As to activity, positive = re-replication: % of control where 0% means no effect.
# Conditions: MCF 10A DNA re-replication, Hoechst nuclear intensity, 48 h; activity, positive = re-replication: at 46.1 µM (top of the series)
# Potency is read from the fitted curve at half-maximal effect; tags tell the direction and shape of the fitted curve.
SMILES,Potency,"activity, positive = re-replication"
Cc1ccc(C(=O)N2CCN(c3ccc(NC(=O)c4ccc5c(c4)OCCO5)cc3)CC2)cc1,inactive,–
O=C(Nc1cccc(Cl)c1N1CCCC1)c1ccco1,"inconclusive [activator, single point]",–
Fc1ccc(C2=NN(c3ccccc3)C(c3ccco3)C2)cc1 (centres undefined),"inconclusive [activator, partial curve, poor fit]",–
C/C(=N\NC(=O)c1cc(-c2ccc(C)s2)[nH]n1)c1ccncc1,inactive,–
C[C@]12C[C@H](O)[C@H]3[C@@H](CCC4=CC(=O)CC[C@@]43C)[C@@H]1CC[C@@H]2C(=O)CO,inactive,–
O=C(CNC(=O)c1ccc(S(=O)(=O)N2CCCC2)cc1)N/N=C/c1c(Cl)cccc1Cl,"inconclusive [activator, single point]",–
CCCC1CCC(c2ccc(C(=O)NN)cc2)CC1 (centres undefined),"inconclusive [activator, single point]",–
CC(OC(=O)COc1ccccc1)C(=O)NC1CCCC1 (centres undefined),"inconclusive [activator, single point]",–
CC1CCCCN1C(=O)CSc1nc(-c2ccccc2)cn1N (centres undefined),inactive,–
CCOC(=O)c1[nH]c2ccc(F)cc2c1NC(=O)CN1CCN(C/C=C/c2ccccc2)CC1,active: 14.6 µM,–
C=CCNC(=S)N(CC)c1cccc2ccccc12,inactive,–
Cc1ccc(/C=C(\C#N)C(=O)Nc2cccc(C)n2)cc1,"inconclusive [activator, partial curve]",–
COc1ccccc1NC(=O)c1c(Nc2ccccc2F)sc(C(=O)Nc2cccc(Cl)c2)c1N,"inconclusive [activator, single point]",–
Cc1ccc2nc(N3CCN(Cc4nnnn4Cc4ccccc4)CC3)c(C#N)cc2c1,"inconclusive [activator, single point]",–
O=C(Cn1cnc2c(cnn2-c2ccccc2)c1=O)N1CCN(c2ccc(F)cc2)CC1,inactive,–
COc1cc2oc(=O)cc(-c3ccc(-c4ccc(O)cc4)cc3)c2c(OC)c1OC,"inconclusive [activator, single point]",–
CC(=O)Nc1ccc(S(=O)(=O)N2CCC3(CC2)CC(=O)c2ccccc2O3)cc1,inactive,–
O=C(c1ccc(C(F)(F)F)cc1)N1CCC(=O)N(C(COCc2ccccc2)Cc2ccccc2)CC1 (centres undefined),"inconclusive [activator, single point]",–
COc1ccccc1C(=O)COC(=O)c1ccccc1OCC(=O)Nc1ccc(SC(F)F)cc1,inactive,–
CC(=O)N1N=C(c2ccc(C)cc2)CC1c1ccco1 (centres undefined),"inconclusive [activator, partial curve, poor fit]",–
CCC(=O)N1CCN(c2ccc(NC(=O)c3ccc([N+](=O)[O-])o3)cc2Cl)CC1,"inconclusive [activator, partial curve, poor fit]",–
O=C(COC(=O)c1ccc2c(c1)C(=O)N(c1cccc3ncccc13)C2=O)c1ccc(Cl)cc1,active: 6.51 µM,–
COc1nc(Nc2ccccc2F)nc(OC)n1,inactive,–

SMILES,Potency,"activity, positive = re-replication"
Cc1ccsc1C(=O)OCC(=O)NCc1ccc(Cl)cc1,"inconclusive [activator, full curve, poor fit]",–
CN(c1ccccc1)P(=O)(N(C)c1ccccc1)N(C)c1ccccc1,inactive,–
Cc1ccccc1NC(=S)/C(=C(\[O-])c1ccc(C)c([N+](=O)[O-])c1)[n+]1ccccc1,"inconclusive [activator, single point]",–
Cc1ccc(NC(=O)C2CCCN2C(=O)NC2CCCCC2)c(C)c1 (centres undefined),inactive,–
Cn1nc(-c2ccc(N3CCOCC3)c(NS(=O)(=O)c3ccccc3)c2)c2ccccc2c1=O,"inconclusive [activator, partial curve]",–
COc1ccc(C(CC(=O)Nc2ccccc2OC)n2cccc2)cc1 (centres undefined),"inconclusive [activator, single point]",–
O=C(NC(=S)Nc1cc(-c2nc3ccccc3[nH]2)ccc1Cl)c1ccc2c(c1)OCO2,active: 3.26 µM,–
FC(F)Sc1ccc(NC(=S)NC2CCC(NC(=S)Nc3ccc(SC(F)F)cc3)CC2)cc1 (centres undefined),"inconclusive [activator, partial curve, poor fit]",–
Cc1ccn2c(Nc3ccccc3C)c(-c3ccccn3)nc2c1,"inconclusive [activator, partial curve]",–
O=C(Nc1nccs1)C(Br)C(Br)c1ccccc1 (centres undefined),"inconclusive [activator, single point]",–
CN(c1ccccc1)c1nc(N2CCCC2)nc(-n2ccnc2)n1,"inconclusive [activator, single point]",–
COc1ccc(-n2c(Cc3cccn3C)nnc2SCC(=O)Nc2ccc(C)cc2C)cc1,–,inconclusive: 43.9% [activator]
C/C(=N\Nc1ccccc1Cl)c1ccc(-n2ccnc2)cc1,"inconclusive [activator, single point]",–
CCCn1c2ccc(C)cc2c2n[nH]c(=S)nc21,inactive,–
COc1ccc(-n2c(C)cc(C(=O)CCl)c2C)cc1,active: 6.51 µM,–
COc1ccc(NC(=S)NN(C)C(=S)Nc2ccc(OC)cc2)cc1,"inconclusive [activator, full curve, poor fit]",–
O=C(c1n[nH]c(=O)c2ccccc12)N1CCN(C2c3ccccc3-c3ccccc32)CC1,"inconclusive [activator, single point]",–
O=C(CSc1nc2ccccc2[nH]1)NCc1ccco1,"inconclusive [activator, single point]",–
COc1cc(-c2noc(C)c2C(=O)NCCc2c[nH]c3ccccc23)cc(OC)c1OC,"inconclusive [activator, full curve, poor fit]",–
O=S(=O)(NC1CCCC1)c1ccc(S(=O)(=O)N2CCCN(Cc3ccccc3)C2)cc1,"inconclusive [activator, full curve, poor fit]",–
COc1ccc2c(C(=O)CN3CC(C)OC(C)C3)c[nH]c2c1 (centres undefined),inactive,–
C=CCn1c(C)c(/C=C/c2cc[n+](C)cc2)c2ccccc21,"inconclusive [activator, partial curve, poor fit]",–
OC(Cc1cccnc1)c1ccccc1 (centres undefined),inactive,–

SMILES,Potency,"activity, positive = re-replication"
N#Cc1nc(N2CCOCC2)nc(N2CCOCC2)n1,"inconclusive [activator, partial curve]",–
COc1ccccc1NC(=O)C1=C(C)Nc2nc3ccccc3n2C1c1cccs1 (centres undefined),"inconclusive [activator, full curve]",–
COc1ccc(-n2c(CNC(=O)COc3ccc(Cl)cc3)n[nH]c2=S)cc1,"inconclusive [activator, single point]",–
Cc1ccc2oc(/N=C(\N)NC(=O)C3CC3)nc2c1,"inconclusive [activator, partial curve, poor fit]",–
O=C(NCC1CCCO1)c1ccc(F)c2ccccc12 (centres undefined),inactive,–
COc1ccccc1/C=C1\SC(=S)N(CCC(=O)N2CCCCC2CCO)C1=O (centres undefined),"inconclusive [activator, partial curve, poor fit]",–
CCc1ccc(CCC(=O)Nc2sc3c(c2C#N)CCCC3)o1,active: 4.61 µM,–
Cc1ccc(C)c(N2CCN(c3cnn(-c4nc5ccccc5s4)c(=O)c3Cl)CC2)c1,"inconclusive [activator, single point]",–
O=C(/C=C/c1ccccc1Cl)c1ccc(O)cc1,"inconclusive [activator, partial curve, poor fit]",–
Cc1ccc(/C=C2\SC(=S)N(CCC(=O)NCCCN3CCOCC3)C2=O)cc1,"inconclusive [activator, single point]",–
C1=CC(c2cc3ccccc3o2)OC(CCc2ccccc2)C1 (centres undefined),"inconclusive [activator, single point]",–
Cc1ccc(-c2nc(C(=O)NCCCN(C)C)cc3c2[nH]c2ccccc23)cc1,"inconclusive [activator, single point]",–
O=C(Nc1ncnc2c1ncn2C1OC(COC(=O)c2ccccc2)C(F)C1O)c1ccccc1 (centres undefined),inactive,–
O=C(c1ccc(C(=O)N2CCOCC2)nc1)N1CCOCC1,"inconclusive [activator, partial curve, poor fit]",–
Cc1ccc(S(=O)(=O)NCCC(=O)NC2CCCCCC2)cc1,inactive,–
O=[N+]([O-])c1cccc(NC(=S)NCCc2ccccc2)c1,inactive,–
C#CCOc1ccc(C2C3=C(CC(C)(C)CC3=O)N(CC(=O)O)C3=C2C(=O)CC(C)(C)C3)cc1,"inconclusive [activator, single point]",–
CC(C)C(=O)N(c1ccc2oc(=O)sc2c1)S(=O)(=O)c1cccs1,"inconclusive [activator, single point]",–
Cc1ccc(O)c(C(=O)c2cnn(-c3ccccc3)c2)c1,"inconclusive [activator, single point]",–
O=C(Nc1ccn(Cc2ccccc2F)n1)c1ccc(COc2ccc(Cl)cc2Cl)o1,"inconclusive [activator, single point]",–
CSc1ccccc1OCc1cc(C(=O)NCCn2ccnc2C)no1,inactive,–
O=c1c2cnn(-c3ccccc3)c2nc(-c2cccs2)n1-c1ccc(Br)cc1,"inconclusive [activator, full curve, poor fit]",–
O=C(O)CC(c1ccccc1)N1C(=O)c2cccc([N+](=O)[O-])c2C1=O (centres undefined),inactive,–
